These are yes or no findings as the source states them, for the method shown. For part of these data: Binding seen in cells or lysates may run through a third protein. Some binding calls cover weakened binding; strength is not graded here. Blank lines part the entries; values can stand above or below the substance they belong to.
Experiments:
[1] = molecular target: endogenous PARP1 (human (endogenous in MDA-MB-231)) (UniProt P09874); test: co-IP; MDA-MB-231 lysates immunoprecipitated with anti-NPM1, anti-PARP1 or control IgG; Protein A/G-agarose overnight; washed five times with RIPA; Western blot
[2] = molecular target: Flag-tagged NPM1 (nucleophosmin) (UniProt P06748); test: co-IP; HEK293T cells transfected with Flag- and/or Myc-tagged proteins; lysates incubated with anti-Flag-agarose or anti-Myc-agarose beads overnight at 4 °C; washed five times with RIPA; Western blot
[3] = molecular target: Flag-tagged NPM1 Δ35 (truncated form of NPM1 with the last 35 amino acids at its C-terminus deleted) (UniProt P06748); test: as above
[4] = molecular target: Myc-tagged PARP1 (UniProt P09874); test: co-IP; cell-free: purified Flag-NPM1 mixed with purified Myc-PARP1, treated with RNase; anti-Myc magnetic beads at 4 °C overnight; washed five times with RIPA; Western blot; both purified
[5] = molecular target: Myc-tagged PARP1 (UniProt P09874); test: co-IP; HEK293T cells transfected with Flag- and/or Myc-tagged proteins; lysates incubated with anti-Flag-agarose or anti-Myc-agarose beads overnight at 4 °C; washed five times with RIPA; Western blot
[6] = molecular target: endogenous NPM1 (nucleophosmin) (human (endogenous in MDA-MB-231)) (UniProt P06748); test: co-IP; MDA-MB-231 lysates immunoprecipitated with anti-NPM1, anti-PARP1 or control IgG; Protein A/G-agarose overnight; washed five times with RIPA; Western blot

Amino acid sequences for entries named in this document (tags omitted). A change or cut given only in a name is not applied to a line headed by its entry. Chains listed by the source or under a name are the forms on record and can include a tag or linker. Residues count along the entry.
UniProt P09874: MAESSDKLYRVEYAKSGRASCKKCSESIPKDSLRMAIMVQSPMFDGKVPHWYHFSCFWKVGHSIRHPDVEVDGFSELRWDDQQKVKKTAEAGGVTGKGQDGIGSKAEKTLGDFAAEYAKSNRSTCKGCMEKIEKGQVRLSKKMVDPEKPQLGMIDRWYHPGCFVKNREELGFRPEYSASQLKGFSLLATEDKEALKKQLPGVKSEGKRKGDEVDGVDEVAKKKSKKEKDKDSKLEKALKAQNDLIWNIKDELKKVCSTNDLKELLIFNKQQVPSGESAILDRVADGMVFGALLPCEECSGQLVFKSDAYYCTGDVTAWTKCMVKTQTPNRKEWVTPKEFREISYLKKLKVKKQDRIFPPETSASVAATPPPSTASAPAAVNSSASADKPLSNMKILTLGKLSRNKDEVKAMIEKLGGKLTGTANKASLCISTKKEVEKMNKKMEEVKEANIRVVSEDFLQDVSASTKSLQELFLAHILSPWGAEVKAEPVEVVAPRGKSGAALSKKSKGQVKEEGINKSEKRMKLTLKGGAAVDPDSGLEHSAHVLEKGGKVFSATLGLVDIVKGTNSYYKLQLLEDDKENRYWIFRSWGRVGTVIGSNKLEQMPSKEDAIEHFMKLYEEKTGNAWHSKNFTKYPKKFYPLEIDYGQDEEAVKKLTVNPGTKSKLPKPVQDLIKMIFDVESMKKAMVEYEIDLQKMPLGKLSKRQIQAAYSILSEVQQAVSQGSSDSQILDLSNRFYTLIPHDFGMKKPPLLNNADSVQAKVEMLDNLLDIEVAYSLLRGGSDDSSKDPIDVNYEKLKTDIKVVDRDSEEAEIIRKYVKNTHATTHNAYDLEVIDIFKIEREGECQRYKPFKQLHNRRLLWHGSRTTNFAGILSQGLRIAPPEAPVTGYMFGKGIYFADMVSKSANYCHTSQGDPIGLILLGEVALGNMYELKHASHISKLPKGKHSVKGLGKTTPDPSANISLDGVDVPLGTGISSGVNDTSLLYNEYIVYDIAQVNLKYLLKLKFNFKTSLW
UniProt P06748: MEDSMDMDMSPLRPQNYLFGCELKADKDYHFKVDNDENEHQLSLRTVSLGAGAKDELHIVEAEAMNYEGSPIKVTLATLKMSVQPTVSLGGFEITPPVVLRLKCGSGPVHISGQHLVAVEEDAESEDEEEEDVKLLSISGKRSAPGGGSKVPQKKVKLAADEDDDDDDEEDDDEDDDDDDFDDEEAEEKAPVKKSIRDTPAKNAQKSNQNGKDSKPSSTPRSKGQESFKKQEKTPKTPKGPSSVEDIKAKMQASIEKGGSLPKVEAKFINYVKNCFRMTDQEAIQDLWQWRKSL
Flag-tagged NPM1 Δ35 (truncated form of NPM1 with the last 35 amino acids at its C-terminus deleted): residues 1-259 of P06748

binding [1]: binds
Substance: endogenous NPM1 (nucleophosmin) (from UniProt P06748 1-294)

binding [2]: binds
binding [3]: no binding
Substance: Myc-tagged PARP1 (from UniProt P09874 1-1014)

binding [4]: binds
binding [5]: binds
Substance: Flag-tagged NPM1 (nucleophosmin) (from UniProt P06748 1-294)

binding [6]: binds
Substance: endogenous PARP1 (from UniProt P09874 1-1014)

Reference: paper PMC7125142
